About 120 (0.25%) of roughly 48,000 compounds were called active. Roughly 4% stayed inconclusive and do not appear here. Calls come from the whole dose curve; as a rule, active = well fitted activation curve with a large enough effect; inconclusive = small, poorly fitted or top-dose-only effect, or another doubt; inactive = no such curve, though single readings can be large or run the other way. The list shows a part of the results.
test: Primary qHTS for Identification of Small Molecule Activators of Huntingtin-Antisense Promoter Activity; details: HEK293 HTT-AS promoter firefly luciferase reporter, 24 h; series mostly up to 57.5 µM; activity change, positive = activation: at the top concentration; note: nearly all actives have a fitted effect of over 55% in size
Method in brief: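 Firefly luciferase signal from promoter-reporter HEK293 cells was scaled between vehicle (0%) and zero RLU (-100%). Compounds were tested at final concentrations of up to 57.5 uM over 24 h at 37 degrees C. PTC124 at 50 uM final served as control inhibitor.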

Activity change, positive = activation, inactive:
CC(C)c1ccc(NC(=O)CN2C(=O)COc3ccc(S(=O)(=O)Nc4ccccc4)cc32)cc1 -32.4%
O=[N+]([O-])c1cc(-c2nc(-c3cccnc3)no2)ccc1NCc1ccccc1 -6.84%
O=C(Nc1ccc(Br)cc1)C1CCN(S(=O)(=O)c2cccc3nsnc23)CC1 -10.6%
CC(C)OCCCNC(=O)CCCn1c(SCC(=O)c2ccc(F)cc2)nc2c(sc3ccccc32)c1=O -8.48%
COc1ccc(-c2nn3c(=O)cc(CN4CCN(C(=O)Nc5ccc(C)c(Cl)c5)CC4)nc3s2)cc1 -7.32%
COc1ccc(CCNC(=O)c2nnc(Cc3ccc(Cl)cc3)o2)cc1OC -15.1%
Cc1ccc2oc(=O)c3cnn(CC(=O)Nc4cccc(C(F)(F)F)c4)c3c2c1 -8.21%
Nc1c(-c2nc(-c3ccc(Cl)cc3)cs2)c2ccccn2c1C(=O)c1ccc2c(c1)OCO2 -8.11%
COCCCNC(=O)c1cc2c(=O)n3cccc(C)c3nc2s1 14.1%
Cc1c(C)n(Cc2ccc(Cl)cc2)c2ccc(C(=O)NCCc3ccc(S(N)(=O)=O)cc3)cc12 -47.8%
CO[C@@H]1[C@@H](OC(N)=O)[C@@H](O)[C@H](Oc2ccc3c(O)c(NC(=O)c4ccc(O)c(CC=C(C)C)c4)c(=O)oc3c2C)OC1(C)C
CCCCc1nc2ccccc2n2c(-c3ccc(C)cc3)c3c(=O)n(C)c(=O)n(C)c3c12 9.72% [at 11.5 µM, percent change from vehicle, -100% = no light]
CSc1cccc(NC(=O)CN(c2ccccc2)S(=O)(=O)N(C)C)c1 -9.84%
CC1CCN(S(=O)(=O)c2ccc3c(c2)N(CC(=O)NC(C)c2ccccc2)C(=O)CO3)CC1 (stereo not drawn) -8.26%
Cc1cc(N2CCCCC2)nc2ccc(NC(=O)c3cccc(F)c3)cc12 2.94%
COc1ccc(N2CCN(C(=O)c3ccc(CS(=O)(=O)c4ccc(Br)cc4)o3)CC2)cc1 -15.5%
Cc1nc(N2CCCC2)c2c(C(=O)N3CCN(c4cccc(Cl)c4)CC3)c(C)oc2n1 -36.4%
C=Cc1ccc(CSc2nc(-c3ccccc3Cl)nc3c2Cc2c(CO)cnc(C)c2O3)cc1 -23%
CN(C)CCNC(=O)CCCN1C(=O)c2cccnc2Oc2ccc(Cl)cc21 0.28%
O=C1CC(c2nc3ccccc3n2CCCOc2ccccc2)CN1c1ccc(F)cc1 (stereo not drawn) -46%
Cc1cc(C)cc(-n2ccn(CC(=O)Nc3ccccc3C(F)(F)F)c(=O)c2=O)c1 -3.56%
CCN(c1ccccc1)c1nnc(NC(=O)Nc2cccc(Br)c2)s1 -13.3%
Cc1ccc(N2CC(C)Cn3c2nc2c3c(=O)n(CC(=O)O)c(=O)n2C)cc1 (stereo not drawn) -6%

— PubChem BioAssay AID1508624 (National Center for Advancing Translational Sciences (NCATS), 2021)
